In all, about 410,000 compounds went through this assay and about 1,200 (0.29%) were called active. Inconclusive means that the source gave no clear call. Such entries were picked first, then a sample of the others. The call rests on the fitted dose curve; in most records, active means well fitted activation curve with a large enough effect; inconclusive means small, poorly fitted or top-dose-only effect; inactive means flat fitted curve, though single readings scatter. Potencies of inconclusive entries are doubtful fits and often do not repeat.
Test: qHTS of Nrf2 Activators; further: nearly all actives have a fitted effect of over 65% in size; on activation: % of control where 0% means no effect
Details: AREc32 ARE-luciferase reporter (MCF7-derived line), luminescence, 24 h; activation: at 46.1 µM (top of the series)
Summary of the method: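 Each well held 1000 AREc32 cells, which were incubated with compound for 24 hr at 37 deg C after overnight attachment, and ARE reporter activity was quantified by firefly luciferase luminescence.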
Potency means the concentration at half of the fitted maximal effect; tags describe the fitted curve by direction and shape.

activation, inactive:
CCOc1ccc(Nc2nnc(-n3nc(C)cc3C)c3ccccc23)cc1 0.512%, CCOC(=O)CSc1nnc(NCC(=O)OC)c(=O)[nH]1 0.403%, Cc1nc2c(c(C)c1CCC(=O)NCc1ccc(Cl)cc1)c(=O)n(C)c(=O)n2C -0.184%, C=CCc1cccc(CNc2cnc3ccccc3c2)c1O 11.7%, CNC(=O)c1ccc(N(Cc2ccccc2C)S(C)(=O)=O)cc1 1.79%, O=C(Nc1ccc2nc(SCC(=O)N3CCCC3)sc2c1)c1cccc(Cl)c1 4.11%, Cc1ccc(F)cc1NC(=O)N1CCN(c2ccnc3cc(Cl)ccc23)CC1 -0.923%, O=C(O)c1cccc(N2C(=O)C3CC=CCC3C2=O)c1 (stereo not drawn) 0.367%, COC(=O)[C@H]1C[C@@H]1[C@H](NC(=O)c1cccnc1)c1ccccc1 0.601%, C[C@H](CO)N1C[C@H](C)[C@@H](CN(C)C)Oc2c(NS(=O)(=O)c3ccc(F)cc3)cccc2C1=O 0.523%, COc1ccccc1NCC(=O)c1ccc(Cl)cc1 4.36%, Cc1ccc2nc(/N=C(\N)NC(=O)NC3CCCCC3)nc(C)c2c1 5.09%, COc1ccc(-c2cc(C(=O)N(C)CC(=O)Nc3cccc(F)c3)c3ccccc3n2)cc1 2.06%, CCOC(=O)C1CCCN(Cc2ccc(OCc3ccccc3)cc2)C1 (stereo not drawn) 5.38%, CC(C)CNC(=O)CSc1nc2scc(-c3ccccc3)c2c(=O)[nH]1 0.0464%, CCc1cc(=O)[nH]c(SCc2nc(-c3cccc(Cl)c3)no2)n1 -0.491%

Potency, inconclusive:
COc1cc2ncnc(NCc3ccco3)c2cc1OC 15.8 µM [activator, single point], O=C(CCSc1ccc(Cl)cc1)c1cccs1 17.8 µM [activator, single point], O=Nc1c(-c2ccccc2)cc2ccccn12 17.8 µM [activator, partial curve, poor fit], Brc1ccc(-c2csc(N/N=C/c3ccco3)n2)cc1 3.55 µM [activator, full curve, poor fit], O=c1[nH]c2ccccc2nc1/C=C/c1ccccc1 3.98 µM [activator, partial curve, poor fit], CCOC(=O)C1(C)Oc2ccccc2C(C(=O)OC)=C1C(=O)OC (stereo not drawn) 35.5 µM [activator, partial curve, poor fit], O=C(Nc1ncccc1Cl)c1cc2ccccc2o1 15.8 µM [activator, single point], COc1ccc(N2C(=O)C(Cl)=C(Oc3cccc(OC)c3)C2=O)cc1 17.8 µM [activator, single point], Cc1cc(C)nc(NC(=O)/C=C/c2ccccc2Cl)c1 20 µM [activator, single point], Cc1ccsc1/C=C/c1ccc2cccc(O)c2n1 7.08 µM [activator, partial curve, poor fit], Cn1c(/C=C/c2cccc([N+](=O)[O-])c2)c([N+](=O)[O-])c(=O)n(C)c1=O 1.78 µM [activator, full curve], N#CNC(=Nc1cccc(F)c1)SCc1ccccc1F 15.8 µM [activator, single point], COc1ccc2c(c1)C1=NN(/C(C)=C/C(C)=O)C(c3cccc(F)c3)C1CC2 (stereo not drawn) 7.08 µM [activator, partial curve, poor fit], O=C(c1ccc(S(=O)(=O)Cc2ccccc2F)c([N+](=O)[O-])c1)N1CCCC1 17.8 µM [activator, partial curve, poor fit], NC(=O)c1sc2nc(-c3cccs3)ccc2c1N 22.4 µM [activator, single point], Cc1no[n+]([O-])c1COc1ccccc1/C=N/n1nnnc1N 3.55 µM [activator, single point], COc1ccc(-c2csc(-c3cccs3)n2)cc1OC 25.1 µM [activator, single point], Cc1ccc2c(c1)Oc1ccc(NC(=O)CCl)cc1C(=O)N2 3.55 µM [activator, single point], O=C(Nc1ccccn1)c1onc2c1CCCC2 3.16 µM [activator, partial curve, poor fit], CC(=O)Nc1nc2c(ccc3ccccc32)s1 14.1 µM [activator, partial curve, poor fit], O=C(Nc1cccc2ncccc12)c1ccc(Cl)cc1 3.16 µM [activator, full curve], c1cc(-c2cc3cc4c(cc3cn2)OCO4)cs1 6.31 µM [activator, partial curve, poor fit], COc1ccc(C(=O)c2c3ccc([N+](=O)[O-])cc3[n+]([O-])n2CCCN)cc1 14.1 µM [activator, partial curve, poor fit], O=C(COC(=O)/C=C/c1ccccc1Cl)NCC1CCCO1 (stereo not drawn) 22.4 µM [activator, single point], COc1ccc(C(=O)/C=C/c2ccccc2)c(OC)c1 6.31 µM [activator, partial curve, poor fit]

Potency, active:
N#Cc1ccccc1NC(=O)c1ccccc1OCC(=O)NCc1ccco1 11.2 µM, O=C(NCc1ccco1)c1nc2ccccc2s1 12.6 µM, C=C1C(=O)O[C@H]2[C@H]1[C@H](OC(=O)/C(C)=C\C)C[C@]1(CO1)[C@@H]1[C@H](OC(C)=O)C=C(C)[C@]21O 15.8 µM, COC(=O)CCCN1C(=O)c2cccc3cccc(c23)C1=O 12.6 µM, Cc1cc(C)c2oc(-c3ccc(C)c(NC(=O)/C=C/c4ccco4)c3)nc2c1 5.62 µM, Nc1nccc(/C=C/c2c(F)cccc2Cl)n1 10 µM, O=C(NN/C(=N/S(=O)(=O)c1ccc(Cl)cc1)c1ccccc1)c1cccc(Cl)c1 4.47 µM

From PubChem BioAssay AID624171 (National Center for Advancing Translational Sciences (NCATS), 2012)
